Laboratory results from publication PMC9911399, “Two distinct binding modes provide the RNA-binding protein RbFox with extraordinary sequence specificity”.
Positions count from the first letter of the chain named. The list shows a part of the results.

T1: RBFOX1 RRM (Homo sapiens, UniProt Q9NWB1 109-208)
T1 sequence: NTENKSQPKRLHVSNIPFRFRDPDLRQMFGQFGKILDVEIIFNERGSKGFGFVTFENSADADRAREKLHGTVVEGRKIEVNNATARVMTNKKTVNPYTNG

B1: UGAUCUC (DNA:RNA)
RNA: GGGAGACCGGAAUUCAGAUUGUCCUGAUCUCUUAAAUCCCGUCGUAGCCACCA
DNA 1: CAATCTGAATTCCGGTCTCCC
DNA 2: TGGTGGCTACGACGGGATT
B2: UAACAAU (DNA:RNA)
RNA: B1 RNA with G26A, U28C, C29A, U30A, C31U
DNA 1: CAATCTGAATTCCGGTCTCCC
DNA 2: TGGTGGCTACGACGGGATT
B3: GUAUUAG (DNA:RNA)
RNA: B1 RNA with U25G, G26U, C29U, U30A, C31G
DNA 1: CAATCTGAATTCCGGTCTCCC
DNA 2: TGGTGGCTACGACGGGATT
B4: GUAUAUA (DNA:RNA)
RNA: B1 RNA with U25G, G26U, C29A, C31A
DNA 1: CAATCTGAATTCCGGTCTCCC
DNA 2: TGGTGGCTACGACGGGATT
B5: CUUGCAA (DNA:RNA)
RNA: B1 RNA with U25C, G26U, A27U, U28G, U30A, C31A
DNA 1: CAATCTGAATTCCGGTCTCCC
DNA 2: TGGTGGCTACGACGGGATT
B6: ACAUUCU (DNA:RNA)
RNA: B1 RNA with U25A, G26C, C29U, U30C, C31U
DNA 1: CAATCTGAATTCCGGTCTCCC
DNA 2: TGGTGGCTACGACGGGATT
B7: GUGAUUG (DNA:RNA)
RNA: B1 RNA with U25G, G26U, A27G, U28A, C29U, C31G
DNA 1: CAATCTGAATTCCGGTCTCCC
DNA 2: TGGTGGCTACGACGGGATT
B8: CAGAAAA (DNA:RNA)
RNA: GGGAGACCGGAAUUCAGAUUGUCCCAGAAAAUUAAAUCCCGUCGUAGCCACCA
DNA 1: CAATCTGAATTCCGGTCTCCC
DNA 2: TGGTGGCTACGACGGGATT
B9: AAUGUAA (DNA:RNA)
RNA: B8 RNA with C25A, G27U, A28G, A29U
DNA 1: CAATCTGAATTCCGGTCTCCC
DNA 2: TGGTGGCTACGACGGGATT
B10: AUAUCGU (DNA:RNA)
RNA: B1 RNA with U25A, G26U, U30G, C31U
DNA 1: CAATCTGAATTCCGGTCTCCC
DNA 2: TGGTGGCTACGACGGGATT
B11: GAUAACA (DNA:RNA)
RNA: B8 RNA with C25G, G27U, A30C
DNA 1: CAATCTGAATTCCGGTCTCCC
DNA 2: TGGTGGCTACGACGGGATT
B12: AAAACGG (DNA:RNA)
RNA: B8 RNA with C25A, G27A, A29C, A30G, A31G
DNA 1: CAATCTGAATTCCGGTCTCCC
DNA 2: TGGTGGCTACGACGGGATT
B13: UAGCUCC (DNA:RNA)
RNA: B8 RNA with C25U, A28C, A29U, A30C, A31C
DNA 1: CAATCTGAATTCCGGTCTCCC
DNA 2: TGGTGGCTACGACGGGATT
B14: CACACCC (DNA:RNA)
RNA: B8 RNA with G27C, A29C, A30C, A31C
DNA 1: CAATCTGAATTCCGGTCTCCC
DNA 2: TGGTGGCTACGACGGGATT
B15: CGGUUGA (DNA:RNA)
RNA: B8 RNA with A26G, A28U, A29U, A30G
DNA 1: CAATCTGAATTCCGGTCTCCC
DNA 2: TGGTGGCTACGACGGGATT
B16: UACCAUA (DNA:RNA)
RNA: B8 RNA with C25U, G27C, A28C, A30U
DNA 1: CAATCTGAATTCCGGTCTCCC
DNA 2: TGGTGGCTACGACGGGATT
B17: UACUCGU (DNA:RNA)
RNA: B1 RNA with G26A, A27C, U30G, C31U
DNA 1: CAATCTGAATTCCGGTCTCCC
DNA 2: TGGTGGCTACGACGGGATT
B18: AUUAGCC (DNA:RNA)
RNA: B8 RNA with C25A, A26U, G27U, A29G, A30C, A31C
DNA 1: CAATCTGAATTCCGGTCTCCC
DNA 2: TGGTGGCTACGACGGGATT
B19: CGGAGGA (DNA:RNA)
RNA: B8 RNA with A26G, A29G, A30G
DNA 1: CAATCTGAATTCCGGTCTCCC
DNA 2: TGGTGGCTACGACGGGATT
B20: AUUGCCC (DNA:RNA)
RNA: B1 RNA with U25A, G26U, A27U, U28G, U30C
DNA 1: CAATCTGAATTCCGGTCTCCC
DNA 2: TGGTGGCTACGACGGGATT
B21: AGCGGUU (DNA:RNA)
RNA: B1 RNA with U25A, A27C, U28G, C29G, C31U
DNA 1: CAATCTGAATTCCGGTCTCCC
DNA 2: TGGTGGCTACGACGGGATT
B22: GUUAGGU (DNA:RNA)
RNA: B8 RNA with C25G, A26U, G27U, A29G, A30G, A31U
DNA 1: CAATCTGAATTCCGGTCTCCC
DNA 2: TGGTGGCTACGACGGGATT
B23: UAAAGAA (DNA:RNA)
RNA: B8 RNA with C25U, G27A, A29G
DNA 1: CAATCTGAATTCCGGTCTCCC
DNA 2: TGGTGGCTACGACGGGATT
B24: UUGCCUA (DNA:RNA)
RNA: B1 RNA with G26U, A27G, U28C, C31A
DNA 1: CAATCTGAATTCCGGTCTCCC
DNA 2: TGGTGGCTACGACGGGATT
B25: CAGAAGC (DNA:RNA)
RNA: B8 RNA with A30G, A31C
DNA 1: CAATCTGAATTCCGGTCTCCC
DNA 2: TGGTGGCTACGACGGGATT
B26: UGUACAU (DNA:RNA)
RNA: B1 RNA with A27U, U28A, U30A, C31U
DNA 1: CAATCTGAATTCCGGTCTCCC
DNA 2: TGGTGGCTACGACGGGATT
B27: UUGAUGC (DNA:RNA)
RNA: B8 RNA with C25U, A26U, A29U, A30G, A31C
DNA 1: CAATCTGAATTCCGGTCTCCC
DNA 2: TGGTGGCTACGACGGGATT
B28: CGCCUAU (DNA:RNA)
RNA: B8 RNA with A26G, G27C, A28C, A29U, A31U
DNA 1: CAATCTGAATTCCGGTCTCCC
DNA 2: TGGTGGCTACGACGGGATT
B29: UAUCAGU (DNA:RNA)
RNA: B8 RNA with C25U, G27U, A28C, A30G, A31U
DNA 1: CAATCTGAATTCCGGTCTCCC
DNA 2: TGGTGGCTACGACGGGATT
B30: CGAAAAC (DNA:RNA)
RNA: B8 RNA with A26G, G27A, A31C
DNA 1: CAATCTGAATTCCGGTCTCCC
DNA 2: TGGTGGCTACGACGGGATT
B31: GUGACAC (DNA:RNA)
RNA: B8 RNA with C25G, A26U, A29C, A31C
DNA 1: CAATCTGAATTCCGGTCTCCC
DNA 2: TGGTGGCTACGACGGGATT

The binders below were run against T1, RBFOX1 RRM (assay: EMSA; HiTS-Eq, 1 nM pool, 10 min; buffer printed only for the single-RNA assays: 10 mM Tris pH 7.5, 150 mM NaCl, 3.4 mM EDTA, 0.001% NP-40, 30 C). Details: tags: His6 N-terminal (pET28a); label: 5' 32P.
How it was run: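 Relative association constants, normalised to the cognate motif, were derived by comparing read counts of each RNA species with those of the control reaction. The RNA sequenced was the free fraction, separated by 8% native PAGE after a 10 min equilibration in 50 µL of 1 nM 5′-radiolabelled RNA (7 randomized nucleotides) with increasing concentrations of purified wild-type or mutant RbFox RRM.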

First: B1
Second: B2
The binding signal of the first is higher: 0.0106 KA relative to UGCAUGU for the first, 0.00334 KA relative to UGCAUGU for the second.

First: B3
Second: B4
The binding signal of the first is higher: 0.0103 KA relative to UGCAUGU for the first, 0.00391 KA relative to UGCAUGU for the second.

Compared with B5, B6 is lower in binding signal: 0.00807 KA relative to UGCAUGU for the first, 0.000537 KA relative to UGCAUGU for the second.

Compared with B7, B8 is lower in binding signal: 0.0236 KA relative to UGCAUGU for the first, 0.000855 KA relative to UGCAUGU for the second.

Compared with B9, B10 is lower in binding signal: 0.00664 KA relative to UGCAUGU for the first, 0.00482 KA relative to UGCAUGU for the second.

First: B11
Second: B12
The binding signal of the first is higher: 0.00439 KA relative to UGCAUGU for the first, 0.0043 KA relative to UGCAUGU for the second.

First: B13
Second: B14
The binding signal of the first is higher: 0.00512 KA relative to UGCAUGU for the first, 0.00117 KA relative to UGCAUGU for the second.

First: B15
Second: B16
The binding signal of the first is higher: 0.0194 KA relative to UGCAUGU for the first, 0.00257 KA relative to UGCAUGU for the second.

Compared with B17, B18 is lower in binding signal: 0.0114 KA relative to UGCAUGU for the first, 0.00447 KA relative to UGCAUGU for the second.

First: B19
Second: B20
The binding signal of the first is higher: 0.0197 KA relative to UGCAUGU for the first, 0.00694 KA relative to UGCAUGU for the second.

First: B21
Second: B22
The binding signal of the first is higher: 0.0148 KA relative to UGCAUGU for the first, 0.0103 KA relative to UGCAUGU for the second.

Compared with B23, B24 is higher in binding signal: 0.00803 KA relative to UGCAUGU for the first, 0.0132 KA relative to UGCAUGU for the second.

First: B25
Second: B26
The binding signal of the first is lower: 0.00454 KA relative to UGCAUGU for the first, 0.00935 KA relative to UGCAUGU for the second.

Compared with B27, B28 is lower in binding signal: 0.0187 KA relative to UGCAUGU for the first, 0.0034 KA relative to UGCAUGU for the second.

Compared with B29, B30 is lower in binding signal: 0.0105 KA relative to UGCAUGU for the first, 0.00128 KA relative to UGCAUGU for the second.

With B31 the binding signal was 0.00858 KA relative to UGCAUGU.
